# Measurements taken from PubChem BioAssay AID1345083 (National Center for Advancing Translational Sciences (NCATS), 2018).
# About 6,200 (6.6%) of roughly 94,000 compounds were called active. Inconclusive results, whose numbers are uncertain, are shown with a selection of clear calls. Calls follow the shape of the dose curve; as a rule, active = well fitted inhibition curve with a large enough effect; inconclusive = small, poorly fitted or top-dose-only effect; inactive = flat fitted curve, though single readings scatter. Potencies beside an inconclusive call are fits to weak or partial responses and may not hold up.
# Assay: Cytotoxic Profiling in HEK 293 Cell Line of Diverse Libraries Using Quantitative High-Throughput Screening; also: nearly all actives have a fitted effect of over 60% in size
# Conditions: HEK 293 viability, ATP luminescence (CellTiter-Glo), 48-72 h; activity change, negative = cytotoxicity: at 115 µM (top of the series) unless noted; series mostly up to 115 µM
# How it was run: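 Viability of HEK 293 cells, plated at 250 cells/well, was judged by cellular ATP after compound treatment for 48 or 72 hr. Luminescence was imaged 10 min after CellTiter-Glo addition at room temperature.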
# % is scaled to controls: 0 for no effect and ±100 for the full control effect; potency is read from the fitted curve at half-maximal effect; tags tell the direction and shape of the fitted curve.
SMILES,Potency,"activity change, negative = cytotoxicity",outcome
COc1ccc(-c2nn(-c3ccccc3C)c(OC(C)=O)c2-c2ccc(NC(C)=O)cc2)cc1OC,"inconclusive: 89.1 µM [inhibitor, single point]",,
COc1ccc2[nH]c3c(c2c1)CCNC31CCN(C(=O)CC(C)C)CC1,"inconclusive: 11.2 µM [inhibitor, full curve, poor fit]",,
CCOC(=O)[C@@H]1CN(C(=O)C2CCCC2)[C@H]2c3ccc(OC)cc3O[C@@H]12,"inconclusive: 89.1 µM [inhibitor, single point]",,
O=C(c1ccccc1F)N1CCC[C@H]1c1nc(-c2ccccc2)no1,"inconclusive: 39.8 µM [inhibitor, full curve]",,
O=C(Nc1ccc(Cl)cc1)c1ccc2c(c1)n(Cc1ccccc1)c(=O)c1ccnn12,"inconclusive: 25.1 µM [inhibitor, full curve, poor fit]",,
c1cncc(COc2cc3c(cn2)NCCN(Cc2ccc4[nH]ccc4c2)C3)c1,"inconclusive: 63.1 µM [inhibitor, partial curve, poor fit]",,
CCC1Oc2ccc(NC(=O)Cc3ccccc3)cc2CN(Cc2cccc(OC)c2)C1=O (stereo unspecified),"inconclusive: 70.8 µM [inhibitor, partial curve, poor fit]",,
Cc1csc(NC(=O)c2ccc3c(c2)OCCN(CCC(F)(F)F)C3)n1,active: 79.4 µM,,
O=C(c1ccccc1)N1CCCC(c2nc(C3CCOCC3)no2)C1 (stereo unspecified),,inactive: 4.04%,
CNC(=O)C1CCN(C(=O)c2ccc(-c3ccccc3OC)cc2)CC1,,,inactive
COc1cccc(N2C(=O)NC(=NC3CCCC3)C23CCCN(Cc2ccsc2)C3)c1 (stereo unspecified),"inconclusive: 56.2 µM [inhibitor, partial curve, poor fit]",,
COCCNC(=O)C1CCCN1Cc1cccc(-c2ccc(C)c(Cl)c2)c1 (stereo unspecified),active: 39.8 µM,,
CN(C)c1ccc(CN2CCc3nc(C4CC4)nc(-c4ccc(O)cc4)c3CC2)cc1,"inconclusive: 79.4 µM [inhibitor, partial curve, poor fit]",,
O=C1CO[C@H]2CCN(Cc3ccccn3)CC[C@@H]2N1CCc1cccnc1,"inconclusive: 126 µM [inhibitor, single point]",,
Cc1nn(-c2ccccc2)c2c1C(C)N(C1CCCN(C(=O)c3ccncc3)C1)C2=O (stereo unspecified),,inactive: -25.7%,
O=C1N(c2ccccc2)c2ccccc2C12CCN(Cc1ccc(C(F)(F)F)cc1)C2 (stereo unspecified),active: 50.1 µM,,
O=C(Nc1ccccc1C(F)(F)F)N1CCC(N(C(=O)C2CC2)C2CCOCC2)CC1,,,inactive
CC1(C)Cc2c(cnn2-c2ccc(F)cc2)C(NC(=O)c2cc(C3CC3)[nH]n2)C1 (stereo unspecified),active: 79.4 µM,,
O=C(c1ccc(OC(F)(F)F)cc1)N1CCN(c2cc(-c3ccccc3)[nH]n2)CC1,"inconclusive: 56.2 µM [inhibitor, partial curve, poor fit]",,
CCNC(=O)CCc1c(C)nn(-c2cccc(C)c2)c1Oc1ccccc1C,"inconclusive: 35.5 µM [inhibitor, partial curve, poor fit]",,
N#Cc1cccc(CN2CCCC(CNS(=O)(=O)Cc3ccccc3)C2)c1 (stereo unspecified),"inconclusive: 100 µM [inhibitor, single point]",,
CC(C)N1CCC(OCCCNC(=O)C2Cn3cccc3C(=O)N2)CC1 (stereo unspecified),,inactive: 2.23%,

SMILES,Potency,"activity change, negative = cytotoxicity",outcome
COc1ccccc1C1CCN(Cc2cn(-c3ccccc3)nn2)CC1,"inconclusive: 79.4 µM [inhibitor, partial curve, poor fit]",,
O=C(c1cnn2c1CCCC2)N1CCC(c2[nH]ncc2-c2ccccc2)CC1,"inconclusive: 50.1 µM [inhibitor, partial curve, poor fit]",,
O=C1CCCCCN1C1CCN(Cc2ccc(C(F)(F)F)cc2)CC1,active: 31.6 µM,,
CC(C)(C)c1ccc(C(=O)N2CCCC(O)(CN3CCCC3)C2)cc1 (stereo unspecified),"inconclusive: 44.7 µM [inhibitor, partial curve]",,
CCCN1C(=O)CCc2cc(NC(=O)CCOC)ccc21,,inactive: 2.47%,
CNC(=O)c1cc(C)nc2onc(C3CCCN(C(=O)c4cccnc4)C3)c12 (stereo unspecified),,inactive: -18.3%,
CN1c2cc(C(=O)Nc3ccccc3)ccc2C(=O)N2CCCCC21 (stereo unspecified),"inconclusive: 89.1 µM [inhibitor, single point]",,
CC(C)NC(=O)NC1CCN(Cc2cccc(-c3cccs3)c2)CC1,"inconclusive: 50.1 µM [inhibitor, partial curve, poor fit]",,
O=C(CN1CC2CC(C1)[C@H]1CCCC(=O)N1C2)N1CCOCC1 (stereo partly specified),,inactive: -2.86%,
COc1cccc(F)c1-c1ncc2c(n1)OCCN(c1cccc(C(F)(F)F)c1)C2=O,"inconclusive: 63.1 µM [inhibitor, full curve, poor fit]",,
O=C(CCCc1ccccc1)N1CCC2(CC1)CN(C1CCC1)CC2CO (stereo unspecified),"inconclusive: 56.2 µM [inhibitor, partial curve, poor fit]",,
O=C(c1n[nH]c2c1CCCC2)N1CCC2(CC1)NC(=O)N(c1ccc(F)cc1)N2,"inconclusive: 31.6 µM [inhibitor, full curve, poor fit]",,
O=C(NC[C@H]1O[C@H](Cc2cc(-c3ccccc3)on2)CC[C@@H]1O)C1CCC1,"inconclusive: 79.4 µM [inhibitor, partial curve, poor fit]",,
O=C(NC[C@H]1COCc2nc3cc(F)ccc3n21)c1ccc(Cl)cc1,active: 70.8 µM,,
CCCCN(C)C(=O)Cn1nc(C)c2sc(-c3ccccc3)nc2c1=O,"inconclusive: 44.7 µM [inhibitor, partial curve]",,
O=C(Nc1ccc([C@@H](O)[C@H]2COCC(=O)N2Cc2ccc(F)cc2)cc1)c1cccs1,"inconclusive: 70.8 µM [inhibitor, partial curve, poor fit]",,
CN(C)C(=O)N1CCn2nc(CNC(=O)c3cccc(-n4cnnc4)c3)cc2C1,,inactive: 3.05%,
COc1cccc([S+](=O)([O-])N2CC(N(C)c3ccccc3C)C2)c1,"inconclusive: 79.4 µM [inhibitor, single point]",,
COc1ccc(Nc2ccnc(N3CCN(C(=O)c4ccc(C(F)(F)F)cc4)CC3)n2)cc1,active: 35.5 µM,,
CCn1cc(S(=O)(=O)N2CCC(c3noc(-c4ccccc4)n3)C2)cn1 (stereo unspecified),"inconclusive: 22.4 µM [inhibitor, partial curve, poor fit]",,
Cc1ccc(-c2c(C(=O)NCC(C)C)nc3sccn23)cc1,"inconclusive: 50.1 µM [inhibitor, partial curve, poor fit]",,
O=C(NC1CCN(c2cc(-c3ccccc3)[nH]n2)CC1)c1cc(Cl)ccc1F,"inconclusive: 31.6 µM [inhibitor, full curve, poor fit]",,

SMILES,Potency,"activity change, negative = cytotoxicity",outcome
CN(C)CCN(Cc1ccco1)C(=O)Cn1nc2n(c1=O)CCC(N)CC2 (stereo unspecified),,inactive: 1.32%,
COc1ccc(C(=O)N2CCc3nc(-c4ccc(Cl)cc4)nc(-c4ccccc4)c3C2)cc1,active: 39.8 µM,,
COc1ccc(CCC(=O)N2CCn3nnc(CCC(=O)N4CCCC4)c3C2)cc1,,inactive: -21.9%,
CCOc1cc(C(=O)NC2CCN(c3cc(-c4ccc(F)cc4)[nH]n3)CC2)cc(OCC)c1OCC,"inconclusive: 50.1 µM [inhibitor, partial curve, poor fit]",,
CN1CCCN(C(=O)Cc2cccs2)c2ccccc21,,inactive: -24.4%,
O=c1[nH]ccn1C1CCN(Cc2ccc(OC(F)(F)F)cc2)CC1,"inconclusive: 126 µM [inhibitor, single point]",,
COc1ccc(-c2cc(C[C@@H]3CC[C@H](O)[C@@H](CNC(=O)NCc4ccccc4)O3)no2)cc1,"inconclusive: 50.1 µM [inhibitor, partial curve, poor fit]",,
CCOC(=O)C1(Cc2cccc(Cl)c2)CCCN(C(=O)c2csc(C(C)=O)c2)C1 (stereo unspecified),active: 39.8 µM,,
CCn1cc(-c2ccc(C)cc2)cc1C(=O)O,"inconclusive: 100 µM [inhibitor, single point]",,
COCCCNC(=O)c1ccc2nnc(-c3cccc(C(F)(F)F)c3)n2c1,,inactive: -9.3%,
O=C1CCN(S(=O)(=O)c2ccccc2)CCCN(C(=O)C2COc3ccccc3O2)CCN1 (stereo unspecified),,inactive: -27.6%,
CC(C)CCNC(=O)c1cnc2n1CCN(Cc1cccc(OC(F)(F)F)c1)CC2,"inconclusive: 50.1 µM [inhibitor, full curve]",,
COc1ccc(-c2nnc(C[C@@H]3C[C@@H](C(C)C)[C@H](CN4CCN(C)CC4)C=C3C)o2)cc1,active: 31.6 µM,,
O=C1N(Cc2ccc(F)cc2)CCCC12CCN(c1nc3ccccc3o1)C2 (stereo unspecified),"inconclusive: 56.2 µM [inhibitor, partial curve, poor fit]",,
COc1cccc(NC(=O)Cn2c(N3CCN(c4ccccc4)CC3)nc(C)cc2=O)c1,"inconclusive: 39.8 µM [inhibitor, full curve, poor fit]",,
COc1ccc(C(=O)N2CCn3c(nn(-c4ccc(C)cc4)c3=O)C2)cc1,"inconclusive: 89.1 µM [inhibitor, partial curve, poor fit]",,
O=C1NC2(CN(Cc3cccc4ccccc34)C2)Oc2ccccc21,"inconclusive: 70.8 µM [inhibitor, partial curve, poor fit]",,
Cc1ccccc1S(=O)(=O)N1CCn2c(n[nH]c2=O)C1,,inactive: 8.39%,
COc1cccc(Nc2ncc3c(n2)C(C)(C(=O)NC2CCOCC2)CC3)c1 (stereo unspecified),active: 89.1 µM,,
COCCn1ncc(N2CCC(C(=O)N3CCc4ccccc4C3)C2)cc1=O (stereo unspecified),,inactive: 0.123%,
COc1ccccc1-n1c(=O)c(C(=O)N2CCN(C(=O)c3ccccc3F)CC2)nc2cccnc21,,,inactive
Cc1cccc(CN2CCCC3(CCN(c4cc(C)c5ccccc5n4)C3)C2=O)c1 (stereo unspecified),active: 35.5 µM,,
